Experimental data published in PubChem BioAssay AID1240 (Sanford-Burnham Center for Chemical Genomics, 2008).
In all, about 50,000 compounds went through this assay and about 800 (1.6%) showed an effect of 50% or more. The list shows a part of the results.

What follows are compounds tested against Bcl-2-like protein 10 (Homo sapiens) (UniProt Q9HD36) (assay: Phenotype converters, Bcl-B/TR3 peptide binding displacement, primary biochemical FP (AID 1240;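 note: 0% = Bcl-B with tracer peptide and DMSO and 100% = tracer peptide lacking Bcl-B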)). Details: GST-Bcl-B / FITC-TR3 peptide fluorescence polarization; stronger effect = higher value; compound at 3.75 mg/L.
UniProt Q9HD36, sequence (Q9HD36 whole entry, looked up): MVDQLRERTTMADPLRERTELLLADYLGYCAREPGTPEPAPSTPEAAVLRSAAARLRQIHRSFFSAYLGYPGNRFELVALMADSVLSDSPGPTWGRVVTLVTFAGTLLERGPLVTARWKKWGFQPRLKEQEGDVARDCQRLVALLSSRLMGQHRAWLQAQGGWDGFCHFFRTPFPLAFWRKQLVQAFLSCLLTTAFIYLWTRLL

SMILES | displacement [%]
CCOc1ccc(NC(=O)c2cncc(Br)c2)cc1 | 17.9
COc1ccc(OC)c(NC(=O)c2ccc3c(c2)C(=O)N(c2cccc([N+](=O)[O-])c2)C3=O)c1 | 11.8
O=Cc1ccc(OCc2ccc([N+](=O)[O-])cc2)cc1 | 9.2
CC(C)(C)OC(=O)N1N=C(c2ccccc2)CC1(O)C(F)(F)F (stereo not given) | 15.2
COc1ccc(C)cc1NC(=O)CC(C)=O | 11.4
CC(=O)Oc1cccc(N2C(=O)c3ccc(C(=O)Nc4c[nH]c(=O)[nH]c4=O)cc3C2=O)c1 | 11.4
CCC(C)c1ccccc1OCC(=O)Nc1nccs1 (stereo not given) | 9.9
COc1ccc(N=Cc2c(O)n(-c3cc(OC)ccc3OC)c(=O)[nH]c2=O)c(OC)c1 | 10.8
COc1cc2c(cc1NC(=O)COc1ccccc1OC)oc1ccccc12 | 0.7
CCOC(=O)CNC(c1ccccc1)c1cc(Br)ccc1NC(=O)OCC (stereo not given) | 13.2
CCN(CC)C(=S)Sc1nc(Nc2ccc(OC)cc2)nc(Nc2cccc([N+](=O)[O-])c2)n1 | 1
O=C(CSc1nc2ccc(N3C(=O)c4ccccc4C3=O)cc2s1)c1ccc([N+](=O)[O-])cc1 | -8.6
COc1cc(/C=C2\C(=O)NC(=O)N(c3ccc(C)cc3)C2=O)ccc1OCc1ccccc1 | 38.6
O=C(N/N=C/C1CC=CCC1)c1cc(Br)ccc1O (stereo not given) | 2.2
COc1ccccc1C(=O)NC(=S)Nc1cccc2c(C)cc(C)nc12 | 1.1
O=C(O)c1cc(Br)ccc1NC(=O)C(c1ccccc1)c1ccccc1 | 0
Cn1c(=O)c2c3c(sc2n(CC(=O)c2ccc(Cl)cc2)c1=O)COC(C)(C)C3 | -4.7
COc1ccc(Cl)cc1NC(=O)C1=C(C)NC(=O)NC1c1ccccc1Br (stereo not given) | 11.4
Nc1nonc1C(=O)NCCNC(=O)CCc1ccccc1 | 8.8
O=C(c1cc2n(n1)C(C(F)(F)F)CC(c1ccccc1)N2)N1CCOCC1 (stereo not given) | 5.1
COC(=O)C(NC(=O)c1ccccc1)C12CC3CC(CC(C3)C1)C2 (stereo not given) | 14.9
Cc1nnc(N2C(=O)c3ccc(-c4nc5ccccc5c(=O)o4)cc3C2=O)s1 | 9.9

SMILES | displacement [%]
CCCC(=O)Nc1cccc(NC(=O)COc2ccccc2C)c1 | -1.8
Cc1nn(-c2ccccc2)c(C)c1Sc1ccc(Cl)cc1 | 3.2
O=C(NNc1c(Cl)cc(Cl)cc1Cl)c1cccs1 | -3.6
COc1ccccc1OCC(=O)NNC(=O)c1cccnc1 | -6.4
COc1ccc(CC(=O)Nc2sc3c(c2C(=O)Nc2ccccc2OC)CCC3)cc1 | -9.7
O=C(Nc1ccc(S(=O)(=O)Nc2ncccn2)cc1)c1cccnc1 | 4.9
O=C1C(Cl)=C(Nc2ccc(O)cc2)c2c(Cl)c(Cl)c(Cl)c(Cl)c21 | 6.9
COc1ccc(N2CC(C(=O)N/N=C/c3c(Cl)cccc3Cl)CC2=O)cc1 (stereo not given) | 0.2
CCC(=O)O/C(C#N)=N\Nc1nc2c([nH]1)c(=O)n(C)c(=O)n2C | -66
CS(=O)(=O)N1CCN(CCCc2ccccc2)CC1 | 9.6
CCCCOc1cccc(C(=O)Nc2ccc(-c3nc4ccccc4s3)c(O)c2)c1 | 1.7
CC(C)NC(=O)c1cnn(-c2ccccc2)c1NC(=O)c1ccccc1 | -3.6
Cc1c(Cl)cccc1NC(=O)C(=O)NCCO | 7.2
Brc1ccc(-c2nc(-c3ccccc3)no2)cc1 | -5.1
CCOC(=O)c1ccccc1NC(=O)CN(c1ccc(C)cc1)S(=O)(=O)c1ccc(F)cc1 | 10.2
CCC1CCc2c(sc(NC(=O)Nc3ccccc3)c2C(N)=O)C1 (stereo not given) | -3.3
O=C(Nc1ccccc1F)c1ccccc1 | 16.5
C=CCN1C(=O)/C(=C\c2ccc3c(c2)OCO3)C(=O)NC1=S | 4.4
Cc1cccc(/C(N)=N/OC(=O)CCc2ccccc2)c1 | 9.2
O=C(Nc1ccccc1CO)c1ccccc1F | 2.6
CC1=C(C(=O)Nc2ccccc2)C(c2cccc(I)c2)NC(=S)N1 (stereo not given) | -2.1
O=C1C(=O)N(c2nc3ccccc3s2)C(c2ccc3c(c2)OCO3)/C1=C(/O)c1ccccc1 (stereo not given) | 12.7

SMILES | displacement [%]
Cc1ccc(NC(=S)NC(=O)c2ccc(Cl)cc2)cc1C | 2.5
O=C(/C=C/c1ccccc1[N+](=O)[O-])c1ccc(F)cc1 | -0.7
O=C(CCC(NC(=O)OCc1ccccc1)C(=O)OCc1ccccc1)Nc1ccccc1 (stereo not given) | 6.3
C=CCNC(=S)Nc1sc(C)c(C)c1C(=O)OCC | 14.9
CCc1c(C#N)c(N)nc(SCC(=O)c2ccc(Cl)c(Cl)c2)c1C#N | 1.7
Cc1ccc(N2C(=O)/C(=C/c3ccccc3)SC2=S)cc1C | 15.2
O=C(O)c1cc2n(n1)C(C(F)(F)F)CC(c1cccs1)N2 (stereo not given) | -1.1
COc1ccc(C)cc1NC(=O)C(=O)NCCc1ccc(OC)c(OC)c1 | 9.6
CCOc1cc(C=C2C(=O)N(C)C(=O)N(C)C2=O)ccc1OCCOc1ccc([N+](=O)[O-])cc1 | 38
CN(C)c1ccc(C(=S)N2CCN(c3cccc(Cl)c3)CC2)cc1 | 11
CCCN1C(=O)c2ccccc2NC1c1ccc(O)c(OC)c1 (stereo not given) | -0.9
CN1C(=O)/C(=C2\SC(=S)N(C3CCS(=O)(=O)C3)C2=O)c2ccccc21 (stereo not given) | 9.3
Fc1cccc(Cl)c1Cc1noc(/C=C/c2ccccc2)n1 | 11.6
NC(=O)c1ccc(N=Cc2ccccc2OCc2ccccc2)cc1 | -8.4
O=C(Nc1ccc(F)c([N+](=O)[O-])c1)c1cc(I)ccc1Cl | 7.4
O=C(COc1ccc(Cl)cc1Br)NNC(=O)C(=O)N1CCCCC1 | -17
CC(C)CC(=O)NS(=O)(=O)c1ccc(N)cc1 | -6.8
CC(=O)Nc1ccc(Cl)c(-c2nc3ccccc3s2)c1 | -4.7
CCN1C(=O)/C(=C\c2cccc(OCc3ccc(Cl)cc3Cl)c2)SC1=S | -0.7
O=C1/C(=C/c2cccs2)SC(=S)N1CCC(=O)N1c2ccccc2Sc2ccc(Cl)cc21 | 6.3
COc1ccc(C)cc1NC(=O)C(=O)NCc1ccncc1 | -15.6
O=C(N/N=C/c1c[nH]c2ccc(Br)cc12)C(O)c1ccccc1 (stereo not given) | -10.9

SMILES | displacement [%]
CCC1=NN2C(=N)/C(=C/c3ccc(-c4ccccc4C(=O)OC)o3)C(=O)N=C2S1 | 3.5
CC(C)CN1C(=O)c2ccc(C(=O)Nc3c[nH]c(=O)[nH]c3=O)cc2C1=O | 7.8
CCOC(=O)c1ccccc1NC(=O)c1cc(Cl)ccc1[N+](=O)[O-] | 10.1
COc1ccc([N+](=O)[O-])cc1NC(=O)Cc1ccc(Cl)cc1 | 8.7
COc1ccc2oc(=O)c(C(=O)Nc3ccccc3F)cc2c1 | 16.3
COc1ccc(C2=C/C(=C/c3cccc(OC)c3OC(C)=O)C(=O)O2)cc1 | -10.8
NS(=O)(=O)c1ccc(Nc2nc(-c3ccncc3)cs2)cc1 | 5.5
CC(C)C(=O)NNC1=CC(=O)CC(C)(C)C1 | 10
O=C1/C(=C\Nc2ccc3c(c2)OCO3)CCc2ccccc21 | 48.1
C/C(=N\N=C1\NC(=O)C(CC(=O)Nc2ccc(Cl)c(Cl)c2)S1)c1ccco1 (stereo not given) | -5.1
O=C(CSCC(=O)N1CCOCC1)Nc1ccccc1 | -8.9
CCOC(=O)C(=O)C1CCc2c([nH]c3ccc(C)cc23)C1=O (stereo not given) | 0.2
O=C(Nc1ccccc1Oc1ccccc1)c1cc2cc([N+](=O)[O-])ccc2oc1=O | 8.5
CC1=NNC(=O)C1CCC(=O)N/N=C/c1c(O)ccc2ccccc12 (stereo not given) | -20.1
COc1cccc(C2C(C#N)=C(N)SC(N)=C2C#N)c1 | -45.6
O=C1CC(N2CCN(c3ccc(Cl)cc3)CC2)C(=O)N1c1ccc(F)cc1 (stereo not given) | -5.3
COc1ccc(-n2c(=S)[nH]c3sc4c(c3c2=O)CCN(Cc2ccccc2)C4)cc1 | -2.5
CSc1nsc(SC)c1NC(=O)OCC1([N+](=O)[O-])COC(C)(C)OC1 | 21.2
Cc1ccc(C(=O)CCNc2ccc(C)c(Cl)c2)o1 | 13.1
CCOc1ccc(C(=O)Nc2cccc3nsnc23)cc1Br | 78.2
Cc1csc(NC(=O)C2CCCCC2C(=O)O)n1 (stereo not given) | -4
Cc1cc(C)nc(NC(=O)Nc2ccc(Cl)cc2)c1 | 0.3

SMILES | displacement [%]
Cc1ccc(NC2=NC3(CCCCC3)N=C(N)N2)c(C)c1 | -2.8
COc1ccc(CC(=O)Nc2ccc(S(=O)(=O)N3CCCCCC3)cc2)cc1 | -10.4
O=C(N1CCCC1)C12CC3CC(CC(C3)C1)C2 | 17.7
Brc1ccc(OCCCCCN2CCCC2)cc1 | 9.5
O=C1NN(c2ccc(Br)cc2)C(=O)/C1=C\c1ccc(O)cc1O | 16.3
COc1ccc(C(=O)Nc2ccc(-c3nc4ccccc4o3)c(O)c2)cc1[N+](=O)[O-] | -5.7
C=CCn1c(SCC(=O)N2CCCCC2)nc2sc3c(c2c1=O)CCCC3 | 8.1
CCOc1cc(/C=N/n2cnnc2)ccc1OCCOc1cccc(C)c1 | -7
CN1CCN(/N=C/C(Br)=C\c2ccccc2)CC1 | 3.4
O=C(c1ccc(F)cc1)N(Cc1ccccc1)c1ccccn1 | 2.1
COCCOC(=O)c1ccc(NC(=O)COc2ccccc2C)cc1 | 6.2
CCCCS(=O)(=O)CC(O)COc1ccccc1 (stereo not given) | 7.7
COc1ccc(C2NC(=S)NC(C)=C2C(=O)Nc2ccccc2)c(OC)c1 (stereo not given) | -15.1
COc1ccc(C)cc1NC(=O)c1c(Cl)cccc1Cl | 2.3
Cc1cccc(N2C(=O)NC(=O)/C(=C\c3cc(C)n(-c4cccnc4)c3C)C2=O)c1 | 9
CCCCOC(=O)c1ccc(NC(=O)COc2ccc3c(C)cc(=O)oc3c2)cc1 | 28.5
COc1cc(C(=O)Nc2ccc(-c3nc4ccccc4[nH]3)cc2)cc(OC)c1OC | 10
CCc1ccccc1NC(=O)CN(c1ccc(OC)cc1)S(=O)(=O)c1ccc(C)cc1 | 5
C=CCn1c(NC(=O)c2ccc(Cl)cc2)nc2ccccc21 | 10.5
O=C(Nc1nnc(-c2ccco2)s1)c1ccco1 | 34.9
C=CCc1cc(/C=C2\C(=O)NC(=O)N(c3ccc(Cl)cc3)C2=O)cc(OC)c1OCC(=O)O | -0.6
CC1CCC(CC(=O)OCc2ccccc2)C1(C)C (stereo not given) | -6
